Test results: PubChem BioAssay AID1963576 (National Center for Advancing Translational Sciences (NCATS), 2024)
Out of some 46,000 compounds screened, about 60 (0.1%) were called active. Inconclusive results (about 3%) are left out. Calls come from the whole dose curve; as a rule, active = well fitted inhibition curve with a large enough effect; inconclusive = small, poorly fitted or top-dose-only effect; inactive = no such curve, though single readings can be large or run the other way. The list shows a part of the results.

Assay: Primary qHTS assay for Inhibitors of ovarian cancer metastasis using an organotypic tumor microenvironment (TME) model.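 For activity change, negative = inhibition: plate controls were DMSO wells for no effect and tomatine positive control wells for full effect.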 Note: nearly all actives have a fitted effect of over 65% in size.
Details: SKOV3ip1-GFP adhesion/invasion on 3D omental model, fluorescence; series mostly up to 45.8 µM; activity change, negative = inhibition: at the top concentration
Method in brief: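 A 3D layer of primary human omental fibroblasts, mesothelial cells, fibronectin and collagen I, grown 48 hr, received SKOV3ip1-GFP cells in serum-free medium plus compounds at 0.36-46 umol/L. After 2 hr RT and 16 hr 37 C, fixed adherent GFP cells were counted; normalized to DMSO and tomatine.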

Activity change, negative = inhibition, inactive:
COc1cc(C2c3c(oc4ccc(C)cc4c3=O)C(=O)N2Cc2ccc(F)cc2)ccc1O (stereo not given) 6.63%
COc1ccc(C2Nc3ccccc3-c3nnc(SC)nc3O2)cc1C (stereo not given) -3.74%
Cc1c(C(=O)Nc2ccc(Br)cc2F)sc2ncnc(N(C)C3CCCCC3)c12 6.85%
COc1cc(CN2CCc3nc(N4CCN(c5ccccc5F)CC4)ncc3C2)ccc1OC(C)C 4.55%
O=C(Nc1ccc2nc(SCC(=O)N3CCCc4ccccc43)sc2c1)c1ccc(F)cc1 -15.4%
CCCCN(CC)C(=O)Cn1c(=O)n(-c2ccc(OCC)cc2)c(=O)c2c3c(sc21)CCCC3 -0.864%
N#Cc1ccccc1NC(=O)C(=O)NCC(c1ccc2c(c1)OCO2)N1CCN(c2ccccc2)CC1 (stereo not given) -12.2%
Cc1nc2cccnc2n1-c1cccc(C(=O)NCCc2ccc(Cl)cc2)c1 -0.0499%
CC(C)(C)c1ccc(NC(=O)CSc2nnc3scc(-c4ccccc4)n23)cc1 1.91%
CSc1ncc(C(=O)Nc2ccccc2C(=O)c2ccccc2)c(C)n1 1.86%
Cn1cnc(S(=O)(=O)N2CCC(C(=O)N3CCN(c4cccc(C(F)(F)F)c4)CC3)CC2)c1 3.12%
O=C(Nc1c(C(=O)c2ccccc2)oc2ccccc12)c1cc(=O)c2ccccc2o1 9.34%
CCOC(=O)c1c(C)[nH]c(C)c1S(=O)(=O)NCC(=O)N(C)c1ccc(C)c(C)c1 10.5%
Cn1c(=O)oc2cc(S(=O)(=O)CCC(=O)N3CCN(c4ccccc4)CC3)ccc21 9.91%
COc1ccc(OC)c(NC(=O)CSc2ccnc(=O)[nH]2)c1 -2.15%
COc1ccc(NC(=O)c2c(NCc3ccc(C)o3)sc3c2CCC(C)C3)c(OC)c1 (stereo not given) 1.72%
COc1ccc(C(=O)NCc2nnc(SCC(=O)Nc3ccccc3)n2-c2ccc(F)cc2)cc1 -7.64%
COc1ccc(C2CC(c3c(O)n(C4CCCCC4)c(=O)[nH]c3=O)=Nc3ccccc3S2)cc1 (stereo not given) -2.36%
COC(=O)c1c(-c2ccc(Cl)cc2)noc1N1CCN(c2ccc(OC)cc2)CC1 10.6%
COc1ccccc1N1CCN(S(=O)(=O)c2c(C)sc3ncn(CC(=O)Nc4cccc(Cl)c4)c(=O)c23)CC1 0.731%
COc1cc(OC)c(Nc2cc(C)nc3ncnn23)cc1Cl -13.1%
CCc1nn2c(=O)cc(COC(=O)CNC(=O)c3ccccc3)nc2s1 -28.7%
O=C(COc1ccccc1F)OCc1cc(=O)n2nc(-c3cccs3)sc2n1 -1.71%
COc1ccccc1CNC(=O)c1ccc(N2CCCC2)c(NC(=O)NCc2ccccc2)c1 2%
Cc1cccc(CNS(=O)(=O)c2ccc3[nH]c(=O)ccc3c2)c1 14.1%
CC1CCCCN1CCCNC(=O)Cn1ncc2c([nH]c3ccccc32)c1=O (stereo not given) 6.46%
Cc1ccccc1CNC(=O)C1CCN(c2nn3cc(-c4ccc(F)cc4)nc3s2)CC1 8.36%
CCC(CC)c1nn2c(=O)cc(COc3ccc(NC(=O)c4ccccc4Cl)cc3)nc2s1 8.92%
NC(=O)c1cc(S(=O)(=O)N2CCN(c3ccc(F)cc3)CC2)cs1 3.28%
COc1ccc(C)cc1NC(=O)c1cc(S(=O)(=O)NC2CCCCCC2)ccc1F 12.1%
CCOC(=O)c1cnc2cc(-c3ccc(Cl)cc3)nn2c1-c1ccccc1 -5.11%
CC(C)Cn1c(=O)c2ccccc2n2c(CCC(=O)Nc3cccc(Cl)c3)nnc12 10.6%
CC(=O)c1cc(-c2ccccc2)n(CC(=O)NC2CCCCC2)c1C 2.86%
COc1ccc(-c2cnnn2-c2ccc(NC(=O)c3ccc(S(=O)(=O)N(C)C)cc3)cc2)cc1 8.03%
COc1ccc(-c2cnnn2-c2ccc(NC(=O)c3c(F)cccc3F)cc2)cc1 -5.3%
COc1cc(-c2nnc(SCC(=O)NCc3ccccc3Cl)o2)cc(OC)c1OC 12.5%
CCOc1ccc(Cn2nnc3c(=O)[nH]c(C4CCN(C(=O)c5ccccc5)CC4)nc32)cc1 2.67%
O=C(Cc1ccc(F)cc1)NC1CC(=O)N(c2ccccc2)C1 (stereo not given) -1.18%
CCOc1ccccc1/C=C/c1onc(C)c1S(=O)(=O)N1CCC(C(=O)N(CC)CC)CC1 -0.55%
O=C1Nc2c(c(=O)[nH]c(=O)n2-c2ccccc2)C1(NS(=O)(=O)c1ccc(Cl)cc1)C(F)(F)F (stereo not given) -1.69%
Cc1ccc(C(=O)NCCn2c(C)cc3ccccc32)cc1C 7.07%
COc1cc2c(=O)n(CCC(=O)NCC3CCCO3)c(=O)n(CC(=O)Nc3ccc(C)cc3)c2cc1OC (stereo not given) 4.62%
CC(=O)c1ccc(NC(=O)c2cn3c4c(ccc(Cl)c4c2=O)OC(C)C3)cc1 (stereo not given) 2.02%
Cc1cc(C)cc(-n2nnc(-c3nc(-c4ccc5c(c4)OCO5)no3)c2C)c1 -2.67%
O=C1CN(C(=O)c2ccc(S(=O)(=O)N3CCCCC3)cc2)C(c2ccc(F)cc2)c2cc(F)ccc2N1 (stereo not given) -1.58%

outcome, inactive:
Cc1nc2c3ccccc3nc(NNC(=O)CCC(=O)N3CCN(c4ccccc4F)CC3)n2n1
CCOC(=O)c1cnc2c(OC)cccc2c1Nc1cccc(O)c1
COc1ccc(NC(=O)CSc2nc(-c3ccccc3)nc3cc(=O)[nH]n23)cc1
COc1ccccc1-c1cc(C(=O)Nc2sc3c(c2C#N)CCCC3)no1
CCOc1ccc(CCNC(=O)CN2C(=O)C(CC)Oc3ccccc32)cc1OCC (stereo not given)
O=C(Nc1ccc(Br)cc1)C1CCN(c2cnccn2)CC1
CCC(C(=O)N1CCN(c2ccccc2)CC1)n1nc(C)n2c(cc3sccc32)c1=O (stereo not given)
CCN(CC)S(=O)(=O)c1nnc(NC(=O)COc2ccccc2Cl)s1
CCOc1ccc(C(=O)Nc2cccc(NC(=O)c3ccco3)c2)cc1Cl
COc1ccc(Cn2c(=O)[nH]c3cc(C(=O)N4CCN(c5cc(C)ccc5C)CC4)ccc3c2=O)cc1
Cc1ccc(NC(=O)Cn2c(=O)n(CCCCCC(=O)NCc3ccc(F)cc3)c(=O)c3sccc32)cc1C
CCCOc1ccc(-c2nn(-c3ccccc3)cc2C2NC(=O)NC(C)=C2C(=O)OC(C)C)cc1 (stereo not given)
Cc1ccc(S(=O)(=O)C(CNC(=O)C(=O)NCc2ccc(Cl)cc2)c2cccs2)cc1 (stereo not given)
CCC(=O)N1c2ccc(S(=O)(=O)N3CCN(c4ccccc4)CC3)cc2CC1C (stereo not given)
Cc1ccc(CNC(=O)C2CCCN(S(=O)(=O)c3ccc4c(c3)oc(=O)n4C)C2)cc1 (stereo not given)
